According to the supplement of paper PMC3334620:
Over roughly 33,000 sequences, “E-score (-0.5 to 0.5)” has its median near -0.04; the highest 2% begin near 0.36. This is one part of the list.

Each sequence was assayed against T1, Hmlalpha2 (UniProt P0CY09) (assay: PBM E-score (8-mer binding enrichment) (E-score (-0.5 to 0.5)); higher = stronger / more preferred TF binding; most listed sequences are background and not binding sites). Conditions: protein concentration: 200 nM; construct: GST-full length.
T1 sequence: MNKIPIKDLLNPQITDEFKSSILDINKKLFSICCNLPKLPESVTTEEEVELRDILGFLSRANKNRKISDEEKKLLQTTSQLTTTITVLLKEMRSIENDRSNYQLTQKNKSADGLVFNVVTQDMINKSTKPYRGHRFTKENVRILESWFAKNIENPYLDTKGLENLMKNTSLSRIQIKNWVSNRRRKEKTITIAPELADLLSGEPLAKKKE
Experimental: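 Universal 'all 10-mer' protein binding microarrays (Agilent AMADID 015681) probed with GST-tagged S. cerevisiae TFs (full-length or DBD) made by in vitro transcription/translation (PURExpress), about 100-200 nM. Bound TF was detected with fluorescent anti-GST. Each ungapped 8-mer (which stands for itself and its reverse complement) is scored by the PBM enrichment score (E-score), a modified Wilcoxon-Mann-Whitney statistic from -0.5 to +0.5, computed with the Universal PBM Analysis Suite. Scale: above 0.35 generally sequence-specific binding.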

Sequence	PBM E-score
TCACTGCA	0.148
CGATGCTC	-0.277
AGCCACAG	-0.242
CCCCTACC	-0.151
ACAAAAAG	0.00072
CAATTCCA	-0.2
CGTTATGC	-0.0512
CTTACTGA	-0.0317
CCCGATAG	-0.399
ATCTACAC	0.45
CGGCCTAC	-0.0673
ACTTTGTA	0.271
GTGCACAA	-0.0722
ATTGTCTG	0.0832
AGTACCGC	-0.0161
ATGGTCGG	-0.269
CAGAAAGC	0.0828
AAGTCCGT	0.00455
ACGTCGAA	0.0747
GGTTTAAA	0.249
CAATATAG	0.0174
AGGCATAA	-0.23
CTGCACTA	-0.07
ACTAGGAC	-0.164
AGATCTTG	0.0404

Sequence	PBM E-score
AACTCTGA	0.0712
AACCAGAA	0.163
GAAAGTGA	-0.067
CTGCTAGC	-0.137
CTGAATTA	0.0283
AAATTACT	0.209
AGCGCAAT	0.0383
CCGACCAC	-0.086
TAGTAGGA	-0.261
ACTAACAA	0.253
TCCAACAA	0.264
AAGGACGA	-0.138
CAATCTCG	-0.0917
GACGTATC	-0.059
CGACGCCG	-0.106
AAAAGAGG	-0.355
GAATTCGC	-0.105
ATGCTCCA	-0.178
GCTTTGAC	0.074
AGGTATAC	0.196
ACCGACAC	-0.0222
ACCGGGCC	-0.269
AGATGACT	-0.171
AATATTCG	0.019
AGGCCTCG	-0.279

Sequence	PBM E-score
GCAAACGC	0.0916
GACGTGCA	-0.00154
CCCTACCC	-0.269
TCTCAGAA	-0.0663
TGGGAAAA	-0.224
CAATGCGC	-0.0478
AATATTGA	0.14
AAGCATTA	0.057
CTACGGGC	-0.102
TCAAGTGA	-0.0789
ACTTCGCA	0.0202
ACACCGTA	0.00356
CCTCATCC	-0.317
CAGGTAGC	-0.0622
AGAACCTC	-0.0832
TAATTGTA	0.335
CTGGGGAA	-0.271
ATCATCAC	0.0892
CCGTAGCG	-0.275
ACTTTGTG	0.0729
GTTACATA	0.421
CGCCACGA	-0.133
ACCAAATA	0.191
ACGCGGGA	0.0935
GCCTGCAC	-0.181

Sequence	PBM E-score
CTCTCATA	-0.0955
TGGCCGAA	-0.0705
GTTCGGTA	0.0665
AACGGATG	0.114
CGTCTACA	0.232
CGATGCTA	-0.00469
CATGACAC	0.328
CAAGTCTG	-0.00344
CCAACATA	0.314
CAGGGTGA	-0.13
CGTGCGCA	-0.0512
CCCTAAGC	-0.183
AGTCGCTC	-0.119
CAGCATTC	-0.0591
ACTTCTGG	-0.135
ATCTGAAC	-0.115
TAACTTGA	0.122
GCCATCAA	-0.0178
CGTCTTCC	-0.218
CCTACGCA	0.205
AGCCTACT	-0.162
ATCGTCCC	-0.167
GACCGAGA	-0.16
CCCTCCAG	-0.384
AACCTCGC	-0.116

Sequence	PBM E-score
GTTGCCGA	-0.0601
AAGCGTCG	-0.0441
AGGCAGCA	-0.0408
CGTGCCAG	-0.205
AAGGTGAT	0.0377
CCGACGAC	-0.191
AATATAAT	0.198
CCTTAGAC	-0.0859
ACCACAAA	0.0536
CTCCATTA	-0.137
CTGCTGGA	-0.187
CCATGACA	0.0453
ATAAACTC	0.105
ACCTATTA	0.0842
ACAAGCCA	0.194
CAGTATCG	-0.0673
CCGCACAG	-0.125
ATTCATAA	0.134
CGGCAAGC	-0.0983
CCCTGGCG	-0.292
AGGCAATG	-0.0945
CTCGTGCC	-0.26
CTATATCC	-0.106
GACCTTAA	-0.155
AGGGTGAC	-0.182

Sequence	PBM E-score
ATATCCTC	-0.175
AGAGTACT	-0.00088
CGACATTC	0.0104
AGGGTGAG	-0.267
CAACTTGG	-0.0128
AACTGAAT	-0.0403
GCCTCCCC	-0.267
CTCGTCGA	0.0413
GAGGTACA	0.235
GCAGACGC	-0.14
AAGGGGTC	-0.0494
GTAATCAA	0.318
CTATTCGC	-0.117
AACTATCT	-0.124
CCCCCTGC	-0.346
AGTCCTGC	-0.0389
CTGAGCAC	-0.093
AGTTTAGA	-0.0687
AAACACGT	0.361
ACAGATCC	0.0671
ACAAGTCG	-0.0657
CCTATAAG	-0.26
AGGTGGAA	0.0522
AATCAATT	0.181
AGCTAGCG	-0.197

Sequence	PBM E-score
ATACGTCC	0.0703
AGGCACTA	-0.128
AGGATACC	-0.137
ACCGAAGA	0.0453
CAAGCAAC	-0.0333
CTCGGCAA	-0.17
AATTCTAG	0.0719
ATTGGCTA	0.00756
CTTTATCC	-0.117
GTAACGTA	0.311
GTGACCAA	-0.106
CTCTGGCC	-0.362
ATGATACG	0.164
AGAGTTGA	-0.0893
CATTTCTA	0.116
AGATTTCG	0.0148
ACCGGCCG	-0.168
TGTACCAA	0.262
GAACCCAC	-0.0128
GACGGGAA	-0.0894
GAAGTCCC	-0.353
TCACAGCA	0.0289
